From PubChem BioAssay AID686978 (National Center for Advancing Translational Sciences (NCATS), 2013)
Screen size: about 420,000 compounds; about 64,000 (15%) were called active. The inconclusive results got no clear call from the source; some entries with a clear call stand among them for comparison. The call rests on the fitted dose curve; in most records, active means well fitted inhibition curve with a large enough effect; inconclusive means small, poorly fitted or top-dose-only effect; inactive means flat fitted curve, though single readings scatter. Potencies of inconclusive entries are left out as doubtful fits.

assay: qHTS for Inhibitors of human tyrosyl-DNA phosphodiesterase 1 (TDP1): qHTS in cells in absence of CPT; settings: DT40 Tdp1-/- hTDP1 cells, no CPT, ATP luminescence, 48 h; activity change, negative = growth inhibition: at 46.2 µM (top of the series) unless noted; further: nearly all actives have a fitted effect of over 55% in size
Summary of the method: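 No-CPT arm: Tdp1-/-;hTDP1 DT40 cells (400/well) plus compounds, incubated ≥48 hr at 37 °C. Readout CellTiter-Glo luminescence.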
On the % scale 0 is the no-effect control and ±100 the full control effect; potency means the concentration at half of the fitted maximal effect; tags describe the fitted curve by direction and shape.

Row | SMILES | Potency | activity change, negative = growth inhibition
1 | CCOC(=O)Cn1c(=N)n(CCOc2ccc3ccccc3c2)c2ccccc21 | inconclusive [inhibitor, single point] | –
2 | COc1cccc(CNC(=O)C23CN(Cc4ccccc4)CC2C(c2ccc([N+](=O)[O-])cc2)=NO3)c1 (centres undefined) | inconclusive [inhibitor, single point] | –
3 | Cc1cccc2cc(CN(C(=S)NCC(C)C)C3CCCC3)c(=O)[nH]c12 | inconclusive [inhibitor, single point] | –
4 | CCOc1ccc(NC(=O)C(C)Oc2ccccc2C(=O)Nc2cccc(Cl)c2Cl)cc1 (centres undefined) | active: 18.4 µM | –
5 | CCCCN(C(=O)C(C)(C)Oc1ccc(Cl)cc1)c1c(N)n(CCC)c(=O)[nH]c1=O | inconclusive [inhibitor, single point] | –
6 | COc1ccc(-c2nnc(SCC(=O)NCc3ccc(C)cc3)nc2-c2ccc(OC)c(OC)c2)cc1OC | active: 18.4 µM | –
7 | CC(=N/O)/C(C)=N\NC(=O)c1ccccn1 | – | inactive: -2.33%
8 | O=C(CSc1nc(-c2ccc(F)cc2)[nH]c1-c1ccccc1)NCC1CCCO1 (centres undefined) | active: 16.4 µM | –
9 | COc1ccc(-c2c(C#Cc3ccsc3)c3cc(-c4ccc(OC)c(F)c4)ccc3n2C)cc1 | – | inconclusive: -34.8% [inhibitor]
10 | Cc1cc(C)cc(NC(=O)CN2CCc3ccccc3C2)c1 | – | inactive: -25.3%
11 | CCc1ccc(C(=O)c2cn(CC(=O)Nc3ccc(OC)c(OC)c3)c3ccc(C)cc3c2=O)cc1 | – | inactive: 2.73%
12 | CCOC(=O)NNC(=O)c1[nH]c2ccc(Br)cc2c1-c1ccccc1 | inconclusive [inhibitor, single point] | –
13 | Cc1cnc(-n2ncc(C(=O)NCCCc3ccncc3)c2C)nc1-c1ccc(F)cc1 | – | inactive: -12.6%
14 | CC(=O)Nc1ccc(-c2ccnc3c2CC(C(=O)NCCC(F)(F)F)O3)cc1 (centres undefined) | active: 14.6 µM | –
15 | Cc1nc(C)c2c(c1C(F)(F)F)-c1ccccc1C2(F)F | – | inactive: -11.9%
16 | O=S(=O)(NC1CCCCC1N1CCCCC1)c1ccccc1 (centres undefined) | – | inactive: 9.57%
17 | COc1ccccc1N1CCN(c2ncccc2-c2nc(-c3ccc(Cl)cc3)no2)CC1 | inconclusive [inhibitor, single point] | –
18 | CN(C)Cc1c(C(=O)Nc2ccccc2)[nH]c2ccccc12 | inconclusive [inhibitor, partial curve] | –
19 | CCS(=O)(=O)N1CCC(n2c(C(F)(F)F)nc3cccnc32)CC1 | inconclusive [inhibitor, single point] | –
20 | Cc1ccc(Cn2nnnc2CN2CCC(NC(=O)c3ccccc3F)CC2)cc1 | inconclusive [inhibitor, single point] | –
21 | Cc1ccc2nc(-c3ccccc3)cc(C(=O)NCC3CCCO3)c2c1 (centres undefined) | inconclusive [inhibitor, partial curve] | –
22 | CCCCOc1cccc(C2c3c(oc4ccccc4c3=O)C(=O)N2c2ccccn2)c1 (centres undefined) | – | inactive: 5.37%
23 | COc1ccc(OC)c2c(C)cc(NCCN3CCOCC3)nc12 | – | inactive: -12.5%
24 | Cc1ccc(CN(C)C(=O)c2cc(COc3cccc(C(F)(F)F)c3)on2)o1 | active: 18.4 µM | –
25 | COCCn1c(SCC(=O)Nc2cc(C)on2)nnc1C(C)C | – | inactive: -1.49%

Row | SMILES | Potency | activity change, negative = growth inhibition
26 | Cc1ccc(NC(=Nc2ccc(Br)cc2)N2CCOCC2)cc1C | active: 20.6 µM | –
27 | COc1ccc(CC(=O)Nc2ccc(S(=O)(=O)NC(C)C)cc2)cc1 | inconclusive [inhibitor, single point] | –
28 | CCCC1=Nc2cc(C(=O)NC(C)c3ccccc3)ccc2Sc2ccc(C)cc21 (centres undefined) | inconclusive [inhibitor, single point] | –
29 | CC(C)(C)c1ccc(OCC(O)CN(CCO)CC(O)Cn2ccc3ccccc32)cc1 (centres undefined) | inconclusive [inhibitor, single point] | –
30 | COc1ccc(O)c(C=NCC(C)N=Cc2cc(OC)ccc2O)c1 (centres undefined) | – | inactive: -11%
31 | CCOC(=O)/C=C/C(=O)Nc1ccc(Oc2ccccc2)cc1 | inconclusive [inhibitor, single point] | –
32 | O=C(CCN1N=C(c2ccccc2)CCC1=O)NCCc1ccc(Cl)cc1 | inconclusive [inhibitor, single point] | –
33 | CC(C)(C)NC(=S)N1CCC(C(=O)c2ccc(Cl)cc2)CC1 | – | inactive: -2.27%
34 | O=C(CSc1nc(C2CC2)nc2ccccc12)N1c2ccccc2Sc2ccc(C(F)(F)F)cc21 | active: 23.1 µM | –
35 | O=c1c2c(-c3ccccc3)ccnc2[nH]n1-c1ccccc1 | inactive | –
36 | Cc1cccc2cc(/C=N/NC(=O)c3ccccc3O)c(Cl)nc12 | inconclusive [inhibitor, single point] | –
37 | COc1cccc(C2NC(=O)CCC2[N+](=O)[O-])c1OC (centres undefined) | – | inactive: -1.62%
38 | COc1ccc(CN(C)C(=O)c2cccc(S(=O)(=O)N3CCN(c4ccccc4)CC3)c2)c(OC)c1OC | active: 13 µM | –
39 | Cn1c2c(c(=O)n(C)c1=O)C(C(F)(F)F)(C(F)(F)F)N=C(c1ccccc1Cl)N2 | inconclusive [inhibitor, single point] | –
40 | COc1ccccc1CNC(=O)C1(C)CCCCN1C (centres undefined) | – | inconclusive: -30.3% [inhibitor]
41 | CC(/C=C/c1ccccc1F)=N\NC(=O)c1cccc(F)c1 | active: 18.4 µM | –
42 | CC(C)C[C@H](NC(=O)c1[nH]cnc1C(=O)N[C@@H](C)C(=O)OC(C)(C)C)C(=O)OCc1ccccc1 | active: 16.4 µM | –
43 | CC(C)OC(=O)c1cccc(NC(=O)c2ccccc2)c1 | active: 13 µM | –
44 | CC(=O)Nc1ccc(C=NNc2nnc(NN=Cc3ccc(NC(C)=O)cc3)c3ccccc23)cc1 | active: 4.11 µM | –
45 | O=C(NCCc1ccccc1)c1cc(S(=O)(=O)N2CCCCC2)c[nH]1 | inconclusive [inhibitor, single point] | –
46 | Cc1cccc(N(C)S(=O)(=O)c2ccc3c(c2)C(C)(C)C(=O)N3C)c1 | inconclusive [inhibitor, single point] | –
47 | COc1ccccc1-n1nnnc1SCC(=O)Nc1ccc(C)c(N)c1 | – | inconclusive: -31.9% [inhibitor]
48 | CC1(C)CCCN(Cc2c(O)ccc3c(=O)c(-c4nc5ccccc5s4)c(N)oc23)C1 | active: 13 µM | –
49 | COc1ccc(NC(=O)C[C@H]2C(=O)N(c3ccc(OC)cc3)C[C@@H]2C)cc1 | inconclusive [inhibitor, single point] | –
50 | Cc1cccc(C(=O)NC(C)C(=O)NC(c2nc3ccccc3[nH]2)C(C)C)c1 (centres undefined) | inconclusive [inhibitor, partial curve, poor fit] | –

Row | SMILES | Potency | activity change, negative = growth inhibition
51 | O=C(NNc1ccc([N+](=O)[O-])cc1[N+](=O)[O-])C1C2CCCCC21 (centres undefined) | inconclusive [inhibitor, single point] | –
52 | O=C1c2ccccc2C(=O)N1OCCCN1C(=O)c2ccccc2S1(=O)=O | – | inactive: -10.4%
53 | COc1cccc(C2C3=C(CC(C)(C)CC3=O)Nc3cc4c(cc32)OCO4)c1 (centres undefined) | – | inactive: -10.7%
54 | Cc1nn(-c2ccccc2)c(C)c1/C=N/NC(=O)c1cc(C23CC4CC(CC(C4)C2)C3)[nH]n1 | inconclusive [inhibitor, single point] | –
55 | COc1ccc(NC(=O)CSCC(=O)N(C)Cc2c(F)cccc2Cl)cc1 | inconclusive [inhibitor, single point] | –
56 | COc1ccc(CCNC(=O)c2ccc3c(c2)N(Cc2ccccc2F)C(=O)c2ccccc2S3(=O)=O)cc1OC | active: 10.3 µM | –
57 | COc1cccc2cc(C(=O)CS(=O)(=O)c3ccc(Cl)cc3)c(=O)oc12 | inconclusive [inhibitor, partial curve] | –
58 | CC(=O)NC(c1ccccc1)c1nc(-c2csc3ccccc23)cs1 (centres undefined) | inconclusive [inhibitor, single point] | –
59 | Cc1cc(C)nc(SCCCNCc2ccccc2)n1 | – | inactive: 4.64%
60 | O=C(CSc1ccc(-c2ccc(Cl)cc2)nn1)N1CCCc2ccccc21 | inconclusive [inhibitor, partial curve] | –
61 | Cc1ccccc1OCC(=O)OCC(=O)Nc1ccc(Cl)cn1 | – | inactive: 0.367%
62 | O=C(Nc1ccc(OCc2ccccc2)cc1)c1cccs1 | inconclusive [inhibitor, single point] | –
63 | O=C(NC1CCCCC1)N(Cc1cc2cc3c(cc2[nH]c1=O)OCCO3)CC1CCCO1 (centres undefined) | inconclusive [inhibitor, partial curve, poor fit] | –
64 | Cc1cccc(N2CCN(C(=O)c3cc4c(=O)oc5ccccc5c4s3)CC2)c1C | – | inactive: 1.18%
65 | Cc1ccc(NC(=O)/C=C/c2ccc(C)o2)c(C)c1 | inconclusive [inhibitor, single point] | –
66 | CCCNC(=O)N1CCC(C(=O)c2ccc(Cl)cc2)CC1 | inconclusive [inhibitor, single point] | –
67 | O=C(NCC(NS(=O)(=O)OCC(Cl)(Cl)Cl)c1ccccc1)C(F)(F)F (centres undefined) | inconclusive [inhibitor, single point] | –
68 | CC(=O)OC1CSC2c3ccccc3C(=O)N2Cc2sccc21 (centres undefined) | – | inactive: -1.61%
69 | Cc1cc(Br)c(NC(=O)Cn2c([N+](=O)[O-])cnc2C)cc1C | – | inactive: -3.48%
70 | CCCCN(CCCC)S(=O)(=O)c1ccc(N2CCCC2=O)c([N+](=O)[O-])c1 | active: 20.6 µM | –
71 | CS(=O)(=O)c1ccc(C(=O)CN2C(=O)NC3(CCCc4ccccc43)C2=O)cc1 (centres undefined) | – | inactive: 3.95%
72 | Cc1cc(C)c(S(=O)(=O)N(C)CC(=O)NCCN2CCOCC2)c(C)c1 | – | inactive: -20.9%
73 | C=CS(=O)(=O)N(Cc1ccccc1)[C@H](CO)CC(C)C | active: 11.2 µM | –
74 | CC(C)(C)c1cc(C2=CSC3=NCCN23)cc(C(C)(C)C)c1O | inconclusive [inhibitor, single point] | –
